The values below come from the supplement of paper PMC12217912.

Some of the results follow. Sequences were assembled here from the parent chain. Inactive controls read about 0.05.

First the molecules themselves.
B1: TEV protease; numbered along this chain (parent)
chain: MGESLFKGPRDYNPISSSICHLTNESDGHTTSLYGIGFGPFIITNKHLFRRNNGTLVVQSLHGVFKVKDTTTLQQHLVDGRDMIIIRMPKDFPPFPQKLKFREPQREERICLVTTNFQTKSMSSMVSDTSCTFPSGDGIFWKHWIQTKDGQCGSPLVSTRDGFIVGIHSASNFTNTNNYFTSVPKNFMELLTNQEAQQWVSGWRLNADSVLWGGHKVFMVKPEEPFQPVKEATQL

Variants of B1 are the subject of this test. Description: raw area under fraction-flipped curve 0-4 h after induction (AUC4h, not background-subtracted), DNA-recorder readout of cleavage of the substrate (dimensionless); higher = more cleavage of the substrate by the protease variant. The note with it: temperature: 34 °C; time window: 0-4 h after rhamnose induction. How it is done: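 In vivo DNA recorder in E. coli TOP10(DE3) ΔrhaA at 34 °C. Each TEVp single-site mutant (parent TEVp 0) is paired with a single-site variant of the 7-mer TEVs (canonical ENLYFQ|S). The substrate sits between flexible linkers in a Bxb1-sfGFP-TEVs-SsrA fusion, so cleavage stabilises Bxb1 and speeds flipping of a recombination array, read by NGS. The value is the raw area under the fraction-flipped curve over 0-4 h after rhamnose induction (AUC4h), with ≥20 reads per time point. It is not background-subtracted; inactive controls average about 0.047.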
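Further: Bxb1 expression induced with 0.2% (w/v) L-rhamnose at OD600 near 0.5, cultures sampled hourly, flipped fraction per protease–substrate barcode pair counted by paired-end Illumina sequencing.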

Consider MGESLFKGPRDYNPISSSICHLTNESDGHTTSLYGIGFGPFIITNKHLFRRNNGTLVVQSLHGVFKVKDTTTLQQHLVDGRDMIIIRMPKDFPPFPQKLKFREPQREERICLVTTNFQTKSMSSMVSDTSCTFPSGDGIFWKHWIQTKDGQCGSPLVSTRDGFIVGIHSASNFTNTNNYFTSVPKNFMELLTNQEAQQWVSGWRLNADSVLWCGHKVFMVKPEEPFQPVKEATQL [G213C], for which the “area with substrate ENLYCQS” value came to 0.0642, the “area with substrate ENLYEQS” value came out at 0.0593, the “area with substrate ENLYGQS” value was determined as 0.0629 and the “area with substrate ENLYHQS” value is 0.0711. Besides, the “area with substrate ENLYIQS” value came to 0.0505, the “area with substrate ENLYKQS” value amounted to 0.0819 and the “area with substrate ENLYSQS” value is 0.0546.
Take MGESLFKGPRDYNPISSSICHLTNESDGHTTSLYGIGFGPFIITNKHLFRRNNGTLVVQSLHGVFKVKDTTTLQQHLVDGRDMIIIRMPKDFPPFPQKLKFREPQREERICLVTTNFQTKSMSSMVSDTSCTFPSGDGIFWKHWIQTKDGQCGSPLVSTRDGFIVGIHSASNFTNTNNYFTSVPKNFMELLTNQEAQQWVSGWRLNADSVLWGGFKVFMVKPEEPFQPVKEATQL [H215F]: the “area with substrate ENLYCQS” value was 0.0808, the “area with substrate ENLYDQS” value amounted to 0.0467, the “area with substrate ENLYEQS” value was 0.0638 and the “area with substrate ENLYGQS” value is 0.058. Further, the “area with substrate ENLYHQS” value came to 0.0552, the “area with substrate ENLYKQS” value worked out at 0.0172, the “area with substrate ENLYMQS” value is 0.0627 and the “area with substrate ENLYPQS” value was found to be 0.0478. The “area with substrate ENLYRQS” value stood at 0.0493, the “area with substrate ENLYTQS” value amounted to 0.0798 and the “area with substrate ENLYVQS” value is 0.068.
Regarding MGESLFKGPRDYNPISSSICHLTNESDGHTTSLYGIGFGPFIITNKHLFRRNNGTLVVQSLHGVFKVKDTTTLQQHLVDGRDMIIIRMPKDFPPFPQKLKFREPQREERICLVTTNFQTKSMSSMVSDTSCTFPSGDGIFWKHWIQTKDGQCGSPLVSTRDGFIVGIHSASNFTNTNNYFTSVPKNFMELLTNQEAQQWVSGWRLNADSVLWGGKKVFMVKPEEPFQPVKEATQL [H215K], the “area with substrate ENLYCQS” value is 0.0535, the “area with substrate ENLYDQS” value was 0.0515, the “area with substrate ENLYEQS” value is 0.0571 and the “area with substrate ENLYGQS” value came out at 0.0533. Further, the “area with substrate ENLYHQS” value is 0.0575, the “area with substrate ENLYKQS” value is 0.0543, the “area with substrate ENLYMQS” value was determined as 0.059 and the “area with substrate ENLYNQS” value was found to be 0.0652. Also, the “area with substrate ENLYPQS” value was determined as 0.0594, the “area with substrate ENLYVQS” value worked out at 0.0625 and the “area with substrate ENLYYQS” value is 0.0538.
For MGESLFKGPRDYNPISSSICHLTNESDGHTTSLYGIGFGPFIITNKHLFRRNNGTLVVQSLHGVFKVKDTTTLQQHLVDGRDMIIIRMPKDFPPFPQKLKFREPQREERICLVTTNFQTKSMSSMVSDTSCTFPSGDGIFWKHWIQTKDGQCGSPLVSTRDGFIVGIHSASNFTNTNNYFTSVPKNFMELLTNQEAQQWVSGWRLNADSVLWGGHKVFMVKPEEPFQPRKEATQL [V229R], the “area with substrate ENLYCQS” value stood at 0.11, the “area with substrate ENLYEQS” value is 0.0537, the “area with substrate ENLYGQS” value stood at 0.0675 and the “area with substrate ENLYHQS” value amounted to 0.0822. For the same variant, the “area with substrate ENLYIQS” value was 0.0944, the “area with substrate ENLYMQS” value turned out to be 0.109, the “area with substrate ENLYNQS” value stood at 0.0662 and the “area with substrate ENLYTQS” value was found to be 0.0886. The “area with substrate ENLYVQS” value came to 0.059.
For MKESLFKGPRDYNPISSSICHLTNESDGHTTSLYGIGFGPFIITNKHLFRRNNGTLVVQSLHGVFKVKDTTTLQQHLVDGRDMIIIRMPKDFPPFPQKLKFREPQREERICLVTTNFQTKSMSSMVSDTSCTFPSGDGIFWKHWIQTKDGQCGSPLVSTRDGFIVGIHSASNFTNTNNYFTSVPKNFMELLTNQEAQQWVSGWRLNADSVLWGGHKVFMVKPEEPFQPVKEATQL [G2K], the “area with substrate ENLYDQS” value was determined as 0.0546, the “area with substrate ENLYEQS” value was 0.0624, the “area with substrate ENLYGQS” value came to 0.0719 and the “area with substrate ENLYHQS” value was 0.0721. Moreover, the “area with substrate ENLYNQS” value stood at 0.0911, the “area with substrate ENLYPQS” value was 0.0807, the “area with substrate ENLYQQS” value is 0.0581 and the “area with substrate ENLYRQS” value came out at 0.051. The “area with substrate ENLYVQS” value is 0.157, the “area with substrate ENLYWQS” value was determined as 0.209 and the “area with substrate ENLYYQS” value worked out at 0.0897.
MIESLFKGPRDYNPISSSICHLTNESDGHTTSLYGIGFGPFIITNKHLFRRNNGTLVVQSLHGVFKVKDTTTLQQHLVDGRDMIIIRMPKDFPPFPQKLKFREPQREERICLVTTNFQTKSMSSMVSDTSCTFPSGDGIFWKHWIQTKDGQCGSPLVSTRDGFIVGIHSASNFTNTNNYFTSVPKNFMELLTNQEAQQWVSGWRLNADSVLWGGHKVFMVKPEEPFQPVKEATQL [G2I]: the “area with substrate ENLYDQS” value is 0.0454, the “area with substrate ENLYEQS” value was found to be 0.0671, the “area with substrate ENLYGQS” value turned out to be 0.0572 and the “area with substrate ENLYMQS” value stood at 0.105. The “area with substrate ENLYQQS” value turned out to be 0.0737 and the “area with substrate ENLYVQS” value amounted to 0.159.
For the variant MGESLFKGPRDYNPISSSICHLTNESDGHTTSLYGIGFGPFIITNKHLFRRNNGTLVVQSLHGVFKVKDTTTLQQHLVDGRDMIIIRMPKDFPPFPQKLKFREPQREERICLVTTNFQTKSMSSMVSDTSCTFPSGDGIFWKHWIQTKDGQCGSPLVSTRDGFIVGIHSASNFTNTNNYFTSVPKNFMELLTNQEAQQWVSGSRLNADSVLWGGHKVFMVKPEEPFQPVKEATQL [W203S], the “area with substrate ENLYCQS” value is 0.0719, the “area with substrate ENLYDQS” value stood at 0.0607, the “area with substrate ENLYEQS” value amounted to 0.0727 and the “area with substrate ENLYHQS” value came out at 0.0617. Moreover, the “area with substrate ENLYIQS” value came to 0.0543, the “area with substrate ENLYKQS” value turned out to be 0.0786, the “area with substrate ENLYRQS” value turned out to be 0.0617 and the “area with substrate ENLYVQS” value was determined as 0.0679. The “area with substrate ENLYWQS” value is 0.0596.
With MGESLFKGPRDYNPISSSICHLTNESDGHTTSLYGIGFGPFIITNKHLFRRNNGTLVVQSLHGVFKVKDTTTLQQHLVDGRDMIIIRMPKDFPPFPQKLKFREPQREERICLVTTNFQTKSMSSMVSDTSCTFPSGDGIFWKHWIQTKDGQCGSPLVSTRDGFIVGIHSASNFTNTNNYFTSVPKNFMELLTNQEAQQWVSGWRLNADSVLWGGHKVFMVKPEEPFQPVKIATQL [E231I], the “area with substrate ENLYCQS” value turned out to be 0.0821, the “area with substrate ENLYDQS” value was determined as 0.0661, the “area with substrate ENLYGQS” value worked out at 0.076 and the “area with substrate ENLYHQS” value came to 0.0471. In addition, the “area with substrate ENLYKQS” value was 0.0723, the “area with substrate ENLYMQS” value is 0.0886, the “area with substrate ENLYNQS” value stood at 0.0737 and the “area with substrate ENLYQQS” value was found to be 0.0634. Further, the “area with substrate ENLYSQS” value turned out to be 0.0982, the “area with substrate ENLYWQS” value amounted to 0.0848 and the “area with substrate ENLYYQS” value was 0.0781.
Turning to MGESLFKGPRDYNPISSSICHLTNESDGHTTSLYGIGFGPFIITNKHLFRRNNGTLVVQSLHGVFKVKDTTTLQQHLVDGRDMIIIRMPKDFPPFPQKLKFREPQREERICLVTTNFQTKSMSSMVSDTSCTFPSGDGIFWKHWIQTKDGQCGSPLVSTRDGFIVGIHSASNFTNTNNYFTSVPKNFMELLTNQEAQQWVSGWRLNADSVLWGGHKVFMVKPEEPFQPVKEAYQL [T233Y], the “area with substrate ENLYCQS” value worked out at 0.0658, the “area with substrate ENLYDQS” value turned out to be 0.0483, the “area with substrate ENLYEQS” value amounted to 0.0656 and the “area with substrate ENLYGQS” value is 0.0766. In addition, the “area with substrate ENLYIQS” value was found to be 0.0927, the “area with substrate ENLYKQS” value is 0.0365, the “area with substrate ENLYNQS” value is 0.0405 and the “area with substrate ENLYVQS” value came to 0.109. The “area with substrate ENLYYQS” value is 0.081.
In the case of MGESLFKGPRDYNPISSSICHLTNESDGHTTSLYGIGFGPFIITNKHLFRRNNGTLVVQSLHGVFKVKDTTTLQQHLVDGRDMIIIRMPKDFPPFPQKLKFREPQREERICLVTTNFQTKSMSSMVSDTSCTFPSGDGIFWKHWIQTKDGQCGSPLVSTRDGFIVGIHSASNFTNTNNYFTSVPKNFMELLTNQEAQQWVSGWRLNADSVLWGGHKEFMVKPEEPFQPVKEATQL [V217E], the “area with substrate ENLYCQS” value came out at 0.0632, the “area with substrate ENLYEQS” value was determined as 0.0488, the “area with substrate ENLYGQS” value was 0.0656 and the “area with substrate ENLYHQS” value amounted to 0.0644. For the same variant, the “area with substrate ENLYMQS” value was determined as 0.0617, the “area with substrate ENLYNQS” value turned out to be 0.0392, the “area with substrate ENLYTQS” value was determined as 0.0428 and the “area with substrate ENLYYQS” value worked out at 0.0492.
